Sequences with one replicate were seen in a single cluster, so their values are uncertain.
The sequences below were run on ATP (assay: switch fluorescence ratio, 500 uM ATP over buffer (Cy3 cluster intensity, sum of 5 cycles each) (fold (ratio)); higher = stronger signal-on switching upon ATP binding; sequences stand for … in TCGTCGGCAGCGTCAGATGTGTATAAGAGACAGTTTTTTTTTTTTTTTTTTTTTTTTT…TC). Conditions: aptamer strand: ATP DNA aptamer (quencher-CACCTGGGGGAGTATTGCGGAGGAAGG + anchor), 100 nM annealed; ATP concentration: 500 uM; one replicate.
Method in brief: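 For every switch-domain sequence, the fluorescence ratio is the mean of per-cluster values, each being summed target-cycle Cy3 intensity over summed buffer-cycle Cy3 intensity. Clusters outside 100-1000 RFU were excluded. On a modified Illumina MiSeq flow-cell, the Cy3-labelled switching-strand clusters were annealed to 100 nM quencher-labelled ATP aptamer, imaged in selection buffer and then after 15 min with 500 uM ATP at 22 °C. Five such cycles were run, with NaOH stripping and re-annealing between them.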
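Note: ATP exposure 15 min at 22 °C before imaging.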

Sequence	switch fluorescence ratio
CTGTTAAGTC	1.03
GTACTGATAT	1.02
TTAGCACTCC	1.54
TTCGGCTGCC	1
CCAGTAGGTT	0.994
GAGATAAGTC	1.05
GAATACCGGG	0.982
AGCAGGGAGT	1.01
CGCCTGTTGT	0.995
CTGATCTTGT	1
AGGTGTGTTT	1.01
AATCCATTAG	0.987
TTGGCTAAAC	1.38
CGGGCCCGGA	1.01
GACTTCGGCG	1.09
AAGGCCCTTC	0.979
GAATGAAGAG	1
CTGTGGGAGG	0.987
GCTTCATAGG	0.96
TTGTGAAGAG	0.973
AGACGTAGCG	0.953
CAGGAATCGG	1.01
GACGGCAAAC	1.3

Sequence	switch fluorescence ratio
CTTATACTAT	1.04
AGCAAAGCTC	1.05
TCAATACTCA	3.14
CCGAGTAACG	1.2
CAGTTTTATG	1.02
CAAAAAGTCT	1.18
TCGGTATGTT	0.98
CGGGCGGATG	1.05
ATATAAAAGC	1.02
ATGCTGTATC	1.01
ATGGTTGAAG	0.97
ATACATAAAC	1.33
CGTTACCCAT	1.04
TTAGACTTGT	0.993
CCCCGGCGCT	1.4
GATCAAATTG	0.98
GGTTCCGGAA	1.03
TTTCATGCCC	0.984
ATACTCGAGA	1.05
TCTTTATAGA	0.951
GGCTGCATTG	0.987
ACAATCGTTA	0.966
AGCAAAGCAA	1.23

Sequence	switch fluorescence ratio
AAACCTAAAA	0.978
TTACCCGTAT	0.992
CCTAGGGGCG	0.987
AGATTAGAGC	1.03
TATCGTGGCC	0.965
CAAGTTGTTC	1.04
TCAACACCCC	1.17
TAATGTGTAG	1.02
TTAGACCAGC	0.95
GGAGAGCAGA	1
GAGGGCTCAG	0.993
AAGCTTGGCG	0.911
ACATCGCCCC	1.07
ATAGCCTGAA	1.02
TGAGCTTGG	0.987
CAGCTGTCAC	1.13
GATGATAGAT	0.961
AAGGCCTTGG	1.11
GACCGATACA	1.17
GATTAGGACT	1.03
AGTACCTTCA	2.1
GTCACACATG	1.01
TCGTCTCGC	0.992

Sequence	switch fluorescence ratio
GTTTACGACC	1.12
TTAGTGTGAT	1.02
GGATAGTGCA	0.994
AGCCGCGGCA	0.981
AGACAATGAT	1.01
CCTAATCCC	1.04
TTGGATTGGT	0.994
CTGGCCGGAT	1.07
ACGACTCGGT	1.09
CCTTCCCATT	1.93
TAGAATGCAC	1.05
TTAGGTTCGT	0.961
TGTAGCGCAG	1.01
CGGAGGAGGC	0.898
TCTGCAAGGT	1.24
GGAGCCGTGG	1
AACCTTCTAT	1.39
AATTATATAC	1.05
AAAATGAATG	1.06
AAATGGCGAA	1.03
GACAGGTCAC	0.996
TCGATATCCT	1.06
AGGAGGTCAA	0.965

Sequence	switch fluorescence ratio
AGCTTAATGG	1.05
TTTCTATGTG	0.943
TCTGAATAGA	0.99
TTAGGAGTCG	0.986
GCTTGACACG	1.04
CAAGTGATA	1.01
CCTGCCGAAG	2.84
CTGGGCAATC	1.5
TGCCAAACTT	1.02
CGCGTTCCT	1.09
TCAATACGCT	1.19
TTTGTGTGAC	0.994
CTAATATTAC	1.06
AAGTGCACAC	1.01
GAGGAGGTCT	1.02
CTTTCGATTC	1.06
CTATAGGGGT	0.994
GCGGGATAAT	1.03
CGGCTCCCCA	1.44
GCCACTTGGG	0.961
GTAATCGAAC	1.06
ACTCACTCAG	2.16
GAATTCGCTT	1.03

Sequence	switch fluorescence ratio
ATCATTCTGC	1.01
TCAGAAAATG	1.18
ATGGGTGTAG	1.01
CTGCCAATCG	1.24
AATATCTAGC	1.05
GGACGCCTGG	0.957
AGACGTTTGT	1.01
GGCGCTCCGA	1.04
AAAGACCGGA	1.01
CGGTCACGGA	0.977
CGTATACCGA	1.04
TTTCTACTGC	1.05
GGCGAGCGTG	0.989
ACCAAGACGA	1.18
ATACGCCACC	1.77
GGTAAATTAC	0.999
CATAGTTGG	0.934
GTATGTCTCG	0.956
CGAAAGTTCG	1.02
TCTGGGCTTC	1.03
GCTAGGTCGG	0.948
GGTACCCCCG	1.78
TTTTAAGT	0.987

Sequence	switch fluorescence ratio
TGCTGTAACA	0.968
GCGATGTCGT	1.04
GCCCTGCATA	1.04
CTTACCCCGC	3.69
GCGCCCGTGC	1.03
GACATTCGCG	1.02
TGCATGGGTC	0.983
TAAAAACACG	1.28
CGGACGGTGG	1.01
GGCTCTGAGT	1.03
GTGGTGCCGA	1.03
TTCAGTACTA	0.99
GCGCGTACGT	1.01
TTATGCGCGA	2.55
AGGCGTTGTC	1
GACTAACTAG	0.988
GATACATTGG	0.992
GTGGGGATG	1.02
CCCCAGCTC	1.92

Reference: the supplement of paper PMC10126150
